The whole screen tested about 290,000 compounds, of which about 1,100 (0.38%) were called active. Inconclusive results, whose numbers are uncertain, are shown with a selection of clear calls. The call rests on the fitted dose curve; in most records, active means well fitted inhibition curve with a large enough effect; inconclusive means small, poorly fitted or top-dose-only effect, or another doubt; inactive means no such curve, though single readings can be large or run the other way. Potencies of inconclusive entries are doubtful fits and often do not repeat.
target: Pyruvate kinase (Leishmania mexicana) (UniProt Q27686); experiment: qHTS Assay for Inhibitors of Leishmania Mexicana Pyruvate Kinase (LmPK); conditions: purified LmPK, Kinase-Glo ATP luminescence, 1 h; series mostly up to 57.5 µM
Chain of UniProt Q27686 (Q27686 whole entry, looked up): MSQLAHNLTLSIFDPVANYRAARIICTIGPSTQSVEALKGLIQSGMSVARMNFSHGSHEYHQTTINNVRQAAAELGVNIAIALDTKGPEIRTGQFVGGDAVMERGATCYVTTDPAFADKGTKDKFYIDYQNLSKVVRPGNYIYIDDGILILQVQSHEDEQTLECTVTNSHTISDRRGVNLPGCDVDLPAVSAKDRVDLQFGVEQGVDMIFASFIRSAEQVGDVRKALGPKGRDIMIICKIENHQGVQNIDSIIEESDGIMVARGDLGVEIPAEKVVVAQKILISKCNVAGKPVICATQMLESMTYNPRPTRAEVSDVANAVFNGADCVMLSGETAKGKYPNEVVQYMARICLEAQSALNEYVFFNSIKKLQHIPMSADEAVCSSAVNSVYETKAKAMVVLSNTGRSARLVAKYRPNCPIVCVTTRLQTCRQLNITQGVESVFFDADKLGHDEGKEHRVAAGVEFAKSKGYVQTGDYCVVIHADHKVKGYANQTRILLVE
Summary of the method: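 In 50 mM imidazole pH 7.2 with 7 mM MgCl2, LmPK (0.1 nM) turned over PEP (0.5 mM) and ADP (0.1 mM) for 1 h at room temperature. Luciferase read-out of ATP.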
Potency means the concentration at half of the fitted maximal effect; tags describe the fitted curve by direction and shape.

SMILES	Potency
Cc1ccc(-n2ncc3c(NCc4ccccc4)ncnc32)cc1	inactive
C/C(=N\Nc1ncc(Cl)cc1Cl)c1ccc(C#N)cc1	inconclusive: 28.2 µM [falling, single point]
COc1cccc(NC(=O)/C=C/c2ccccc2[N+](=O)[O-])c1	inconclusive: 14.1 µM [falling, partial curve]
O=C(Nc1ccc2[nH]ccc2c1)c1ccccc1	inconclusive: 15.8 µM [falling, partial curve]
CCOc1ccc(N/C=C/C(=O)c2ccccc2)c([N+](=O)[O-])c1	active: 3.98 µM
Cc1cc(NC(=O)c2ccccc2)sc1C	active: 12.6 µM
O=C(NCc1n[nH]c(=S)n1-c1ccccc1Cl)c1ccc(S(=O)(=O)N2CCCCC2)cc1	inactive
O=S(=O)(c1ccc2ccccc2c1)N(CC(O)CN1CCOCC1)c1ccccc1 (stereo not given)	inactive
COc1ccc(-c2n[nH]c(=S)n2Cc2ccco2)cc1	inconclusive: 11.2 µM [falling, partial curve]
O=C(O/N=C1/CCSc2ccccc21)c1ccccc1	inconclusive: 15.8 µM [falling, partial curve]
O=C(COc1ccccc1)N1CCN(C(=O)c2ccc([N+](=O)[O-])cc2)CC1	inconclusive: 12.6 µM [falling, partial curve]
Fc1ccc(CSc2ccc(-c3cccs3)nn2)cc1	inactive
C=CCOc1ccc(C=Nc2ccc(OC)cc2)c(O)c1	inconclusive: 5.01 µM [falling, full curve, poor fit]
COc1ccc2nc(NC(=O)c3ccoc3C)sc2c1	active: 5.01 µM
S=c1[nH]nc(CSCc2ccc(Cl)cc2Cl)n1-c1ccccc1	inconclusive: 20 µM [falling, single point]
COc1cccc2cc(-c3ccccc3)c(=O)oc12	inconclusive: 14.1 µM [falling, partial curve]
Fc1ccccc1-c1n[nH]c(=S)n1Cc1ccccc1	inconclusive: 39.8 µM [falling, single point]
COCCn1c(C)cc(C2=NNC(=NC3CC3)SC2)c1C	inconclusive: 15.8 µM [falling, partial curve]
COc1ccc(CCCC(=O)N/N=C/c2ccccc2OC)cc1	inactive
Cc1ccc2nc(N3C(=O)CNC3=S)sc2c1	inconclusive: 39.8 µM [falling, single point]

SMILES	Potency
Nc1nc(-c2nc3ccccc3[nH]2)cs1	inconclusive: 10 µM [falling, partial curve]
O=C(Nc1ccc2c(c1)OCO2)c1ccc2c(c1)OCO2	inconclusive: 15.8 µM [falling, partial curve]
C/C(=N\NC(=O)c1ccccc1NC(=O)c1ccc(Cl)cc1)c1ccncc1	inconclusive: 12.6 µM [falling, partial curve]
CCCNC(=O)Cn1sc2nc(C)cc(C)c2c1=O	inconclusive: 39.8 µM [falling, single point]
CCCCOc1ccc(C(=O)N2CCCC2)cc1	inconclusive: 22.4 µM [falling, single point]
Cc1ccc(CSc2nnc(-c3ccc4c(c3)OCO4)o2)cc1	inactive
Cc1nc(C)c(/C(O)=C/c2nc3ccccc3oc2=O)s1	inactive
COc1ccc(/C=N/Nc2nc(-c3cccnc3)nc3ccccc23)cc1OC	inconclusive: 14.1 µM [falling, partial curve]
O=C(N/N=C1\CCc2ccccc21)c1ccccc1O	active: 12.6 µM
c1ccc(CSc2nnc3ccc(-c4cccs4)nn23)nc1	inactive
CCc1ccc(C2=NN(C(C)=O)C(c3ccco3)C2)cc1 (stereo not given)	active: 15.8 µM
CCN(CC)c1ccc(/C=C2/C(=O)c3ccc(C(=O)O)cc3C2=O)cc1	inconclusive: 28.2 µM [falling, single point]
S=c1[nH]nc(-c2ccco2)n1-c1ccccc1Cl	inconclusive: 31.6 µM [falling, single point]
COc1ccccc1N=Cc1c(O)c2ccccc2oc1=O	inconclusive: 15.8 µM [falling, partial curve]
Cn1cccc1C(=O)C(=O)Nc1ccc(Cl)cc1	inconclusive: 15.8 µM [falling, partial curve]
COc1ccc(-n2c(-c3ccc(Cl)cc3Cl)n[nH]c2=S)c(OC)c1	inconclusive: 20 µM [falling, partial curve]
CC(=O)Nc1ccc2nc(NC(=O)c3cccs3)sc2c1	inconclusive: 15.8 µM [falling, partial curve]
Cc1[nH]c2ccc(-c3n[nH]c(=S)n3-c3ccccc3)cc2c1C	inconclusive: 14.1 µM [falling, partial curve]
CN(C)c1nc(=Nc2cccc(Cl)c2)ss1	inconclusive: 22.4 µM [falling, partial curve]
CCOC(=O)c1cc(-c2ccccc2)sc1NC(=O)C(C)N1C(=O)NC(C)(c2ccc(Cl)cc2)C1=O (stereo not given)	inactive
